Test results taken from PubChem BioAssay AID493208 (National Center for Advancing Translational Sciences (NCATS), 2011).
Among all 44,000 compounds or so, about 340 (0.77%) were called active. Roughly 5% stayed inconclusive and do not appear here. The call rests on the fitted dose curve; in most records, active means well fitted inhibition curve with a large enough effect; inconclusive means small, poorly fitted or top-dose-only effect; inactive means flat fitted curve, though single readings scatter. This is one part of the list.

experiment: Acumen qHTS Assay for Inhibitors of the mTORC1 Signaling Pathway in MEF (Tsc2-/-, p53-/-) Cells: Sytravon; details: phospho-rpS6 immunofluorescence/PI, 24 h; series mostly up to 38.3 µM; activity change, negative = inhibition: at the top concentration;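 further: plate controls were DMSO for no effect and rapamycin for full effect; nearly all actives have a fitted effect of over 50% in size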
Summary of the method: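 Readout is phospho-S6 Alexa 488 signal normalized to PI per well, reported as % active cells with thresholds set from rapamycin (7.5 nM) and DMSO controls. Cells: Tsc2-/-, p53-/- MEFs, 24 hrs compound at 37 C; PI cell number serves as viability.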

Activity change, negative = inhibition, inactive:
CCN1CCN(c2ncnc3c2cnn3-c2ccc(C)c(C)c2)CC1 9.4%
Cn1c(-n2cccc2)c(-c2c(-c3ccccc3)[nH]c3c2c(=O)[nH]c(=O)n3C)c(=O)[nH]c1=O -5.33%
Cc1ccc2c(c1)N(CC(=O)NCCc1ccc(Cl)cc1)C(=O)c1cccnc1O2 -1.11%
COc1cccc(CNC(=O)c2ccc3c(c2)nc2n3CCOC2)c1 7.48%
Cc1ccc(-c2nnn3c2nc(NCC(C)c2ccccc2)c2ccccc23)cc1 (configuration not stated) -6.27%
CCOC(=O)CSc1nc2sc3c(c2c(=O)n1-c1ccccc1)CC(C(C)C)OC3 (configuration not stated) 10.2%
CCOc1ccc(CNC(=O)c2ccc(CS(=O)Cc3ccc(Cl)cc3)o2)cc1 (configuration not stated) 0.621%
CCOc1ccc(C(=O)Nc2cccc(OCc3cc(=O)n4cc(C)sc4n3)c2)cc1 1.59%
CCCCOC(=O)c1cccc(NC(=O)c2cc3ccccc3o2)c1 17.2%
O=C(Nc1ccc(Cl)cc1F)c1cc(S(=O)(=O)NCc2ccc3c(c2)OCO3)ccc1F -12.3%
CCc1ccc2oc(C(=O)Nc3sc4c(c3C(=O)NC)CCCC4)cc(=O)c2c1 3.38%
COc1cccc(CNCCSc2nnnn2C)c1OCc1ccccc1F -10.5%
CN(C)CCn1c2c(c(SCC(=O)Nc3ccc(F)cc3F)nc1=O)CCC2 6.2%
O=C(NCCc1ccccc1)c1ccc(CSc2nc3ccncc3n2Cc2ccc(F)cc2)cc1 2.57%
CCCCn1cc(S(=O)(=O)c2cccc(C)c2)c(=O)c2cc(F)c(N3CCOCC3)cc21 -5.71%
Cc1ccc(C)c(Cn2nc(-c3cc(C)ccc3C)ccc2=O)c1 -7.47%
CCOC(=O)c1c(S(=O)(=O)N2CCCC(C(=O)N3CCN(c4ccccc4)CC3)C2)c(C)n(C)c1C (configuration not stated) -0.042%
Cc1ccccc1OC(=O)CSc1nnc(-c2cccs2)o1 -0.665%
COc1cccc(N2CC(NC(=O)c3ccc(S(=O)(=O)N4CCCCC4)cc3)CC2=O)c1 (configuration not stated) -7.99%
CCOc1ccc(S(=O)(=O)NCC(c2ccco2)S(=O)(=O)c2ccc(F)cc2)cc1 (configuration not stated) 1.5%
COc1ccc(-c2nc3ccccc3o2)cc1NC(=O)COc1ccc(C(C)(C)C)cc1 2.03%
CCOC(=O)c1cc2c(=O)n3ccccc3nc2n(CC2CCCO2)c1=NC(=O)c1ccc(C)cc1 (configuration not stated) 0%
O=[N+]([O-])c1ccc(C(c2sc3nc(-c4ccco4)nn3c2O)N2CCN(c3cccc(Cl)c3)CC2)cc1 (configuration not stated) -6.06%
CCc1cccc(NC(=O)Cn2nc(-c3cc(C)ccc3C)ccc2=O)c1 -4.1%
Cc1nnc(NCc2ccccc2)c2c1nnn2Cc1ccc(F)cc1 -2.22%
Cc1ccc(CN2C(=O)C3(c4ccccc42)N(c2cccc(C(F)(F)F)c2)C(=O)CS3(=O)=O)cc1 (configuration not stated) 3.89%
COc1ccccc1NC(=O)CSc1oc(-c2cccs2)nc1S(=O)(=O)c1ccccc1 0.546%
O=c1cc(CSc2n[nH]c(-c3ccccc3)n2)[nH]c2ccccc12 -13.1%
COc1cc(NC(=O)c2cc3c(=O)n(Cc4cccs4)ccc3nc2C)cc(OC)c1OC -14.4%
CC(Oc1ccccc1Cl)C(=O)N1CCN(CCc2ccccn2)CC1 (configuration not stated) -11.3%
O=C(CN1C(=O)COc2ccc(S(=O)(=O)N3CCOCC3)cc21)N1CCN(c2ccc(F)cc2)CC1 2.16%
CC(Sc1nc(=O)cc(N)n1CCc1ccccc1)C(=O)Nc1ccccc1C#N (configuration not stated) 4.7%
COc1ccc(OC)c(NC(=O)CN2C(=O)CCc3cc(S(=O)(=O)N4CCCCC4)ccc32)c1 0%
O=C(NC1CCCCC1)c1ccc2c(c1)N(Cc1ccc(Cl)cc1)C(=O)c1ccccc1S2(=O)=O -3.67%
COc1cccc(N2CCN(C(=O)c3cnn(-c4ccc(C)cc4C)c3C3CCN(C(=O)OC(C)(C)C)CC3)CC2)c1 0.811%
CC(=O)N1c2c(cc(Br)cc2S(=O)(=O)N2CCN(c3cccc(Cl)c3)CC2)CC1C (configuration not stated) -1.55%
CCN(Cc1ccccc1)C(=O)c1cc2c(s1)-c1c(C)cccc1OC2 -1.6%
Cc1ccc(Cl)cc1NC(=O)Cn1c(=O)n(Cc2ccc(C(=O)NCc3ccc4c(c3)OCO4)cc2)c(=O)c2ccccc21 -26.2%
CC(=O)c1cccc(NS(=O)(=O)c2ccc3c(c2)NC(=O)CC(=O)N3)c1 -1.22%
Cc1ccc(C)c(N2CCN(C3=C(c4ccccc4)C(=O)c4ccccc43)CC2)c1 -20.4%
CCN1CCN(c2c(S(=O)(=O)c3ccc(C)c(C)c3)cnc3ccc(F)cc23)CC1 -10.2%
O=c1c2cnn(-c3ccc(Cl)cc3)c2ncn1Cc1cccc(C(F)(F)F)c1 -0.256%
COc1ccc(NC(=O)CSc2cc(-c3ccccc3)nc(C)n2)cc1 -13%
Cc1nn(CC(=O)Nc2ccccc2F)c(=O)c2c(C)n(-c3ccc(Cl)cc3)nc12 -10.5%
CCS(=O)(=O)c1ncc(N(Cc2ccc(F)cc2)Cc2ccco2)c(C(=O)Nc2cc(C)ccc2C)n1 0.885%
CCOC(=O)C1CCN(C(=O)CN2c3ccc(CC)cc3-c3ccccc3S2(=O)=O)CC1 -0.818%
CCC(=O)Nc1ccc2nc(SCCOc3ccc(C)cc3)sc2c1 -6.87%
